Binding data for nine substances are collected here from publication PMC10272126.

Protein sequences, listed by entry. Tags and fused reporters are not part of them.
UniProt P62330: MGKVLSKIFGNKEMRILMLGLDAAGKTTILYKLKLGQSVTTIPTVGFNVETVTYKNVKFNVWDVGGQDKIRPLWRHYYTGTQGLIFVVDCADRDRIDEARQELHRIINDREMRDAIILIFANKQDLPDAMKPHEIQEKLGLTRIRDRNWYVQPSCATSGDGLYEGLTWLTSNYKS
UniProt Q15438: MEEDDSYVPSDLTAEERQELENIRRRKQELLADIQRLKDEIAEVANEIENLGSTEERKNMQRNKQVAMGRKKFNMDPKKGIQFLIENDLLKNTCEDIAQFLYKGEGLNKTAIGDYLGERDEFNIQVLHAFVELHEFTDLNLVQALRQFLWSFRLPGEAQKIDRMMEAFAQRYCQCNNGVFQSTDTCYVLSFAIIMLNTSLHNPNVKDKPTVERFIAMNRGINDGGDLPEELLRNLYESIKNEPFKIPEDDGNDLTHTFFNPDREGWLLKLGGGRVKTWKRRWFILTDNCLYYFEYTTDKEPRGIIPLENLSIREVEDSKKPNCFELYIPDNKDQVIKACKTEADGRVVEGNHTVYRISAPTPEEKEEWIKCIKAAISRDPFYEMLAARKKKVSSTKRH
UniProt Q99418: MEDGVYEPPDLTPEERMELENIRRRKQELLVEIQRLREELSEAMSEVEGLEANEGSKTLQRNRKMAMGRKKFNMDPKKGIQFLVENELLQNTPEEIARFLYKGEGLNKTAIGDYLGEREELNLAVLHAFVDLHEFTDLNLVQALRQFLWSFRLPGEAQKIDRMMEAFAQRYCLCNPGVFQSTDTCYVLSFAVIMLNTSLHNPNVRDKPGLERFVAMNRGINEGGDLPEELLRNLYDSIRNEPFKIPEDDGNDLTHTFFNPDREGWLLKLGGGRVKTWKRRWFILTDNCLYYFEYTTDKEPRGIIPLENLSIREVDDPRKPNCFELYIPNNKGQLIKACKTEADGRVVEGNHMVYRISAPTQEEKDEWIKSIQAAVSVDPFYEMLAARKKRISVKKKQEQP
UniProt O43739: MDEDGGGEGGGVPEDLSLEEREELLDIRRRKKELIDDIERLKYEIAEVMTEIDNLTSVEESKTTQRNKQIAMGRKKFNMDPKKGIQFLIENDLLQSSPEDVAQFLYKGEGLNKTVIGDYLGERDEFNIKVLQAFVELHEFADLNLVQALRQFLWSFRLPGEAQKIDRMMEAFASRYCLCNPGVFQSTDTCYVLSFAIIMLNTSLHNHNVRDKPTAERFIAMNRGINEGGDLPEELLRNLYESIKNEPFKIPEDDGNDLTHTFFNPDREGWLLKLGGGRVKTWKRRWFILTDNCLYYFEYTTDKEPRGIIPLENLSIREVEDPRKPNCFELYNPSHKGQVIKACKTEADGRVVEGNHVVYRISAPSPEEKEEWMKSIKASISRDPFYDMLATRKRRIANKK
UniProt Q8N8I0: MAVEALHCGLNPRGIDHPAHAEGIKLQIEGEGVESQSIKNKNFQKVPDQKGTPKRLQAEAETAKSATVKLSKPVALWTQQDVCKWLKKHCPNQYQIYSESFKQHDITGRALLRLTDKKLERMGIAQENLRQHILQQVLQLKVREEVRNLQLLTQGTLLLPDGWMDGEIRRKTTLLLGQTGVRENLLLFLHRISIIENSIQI
UniProt O95819: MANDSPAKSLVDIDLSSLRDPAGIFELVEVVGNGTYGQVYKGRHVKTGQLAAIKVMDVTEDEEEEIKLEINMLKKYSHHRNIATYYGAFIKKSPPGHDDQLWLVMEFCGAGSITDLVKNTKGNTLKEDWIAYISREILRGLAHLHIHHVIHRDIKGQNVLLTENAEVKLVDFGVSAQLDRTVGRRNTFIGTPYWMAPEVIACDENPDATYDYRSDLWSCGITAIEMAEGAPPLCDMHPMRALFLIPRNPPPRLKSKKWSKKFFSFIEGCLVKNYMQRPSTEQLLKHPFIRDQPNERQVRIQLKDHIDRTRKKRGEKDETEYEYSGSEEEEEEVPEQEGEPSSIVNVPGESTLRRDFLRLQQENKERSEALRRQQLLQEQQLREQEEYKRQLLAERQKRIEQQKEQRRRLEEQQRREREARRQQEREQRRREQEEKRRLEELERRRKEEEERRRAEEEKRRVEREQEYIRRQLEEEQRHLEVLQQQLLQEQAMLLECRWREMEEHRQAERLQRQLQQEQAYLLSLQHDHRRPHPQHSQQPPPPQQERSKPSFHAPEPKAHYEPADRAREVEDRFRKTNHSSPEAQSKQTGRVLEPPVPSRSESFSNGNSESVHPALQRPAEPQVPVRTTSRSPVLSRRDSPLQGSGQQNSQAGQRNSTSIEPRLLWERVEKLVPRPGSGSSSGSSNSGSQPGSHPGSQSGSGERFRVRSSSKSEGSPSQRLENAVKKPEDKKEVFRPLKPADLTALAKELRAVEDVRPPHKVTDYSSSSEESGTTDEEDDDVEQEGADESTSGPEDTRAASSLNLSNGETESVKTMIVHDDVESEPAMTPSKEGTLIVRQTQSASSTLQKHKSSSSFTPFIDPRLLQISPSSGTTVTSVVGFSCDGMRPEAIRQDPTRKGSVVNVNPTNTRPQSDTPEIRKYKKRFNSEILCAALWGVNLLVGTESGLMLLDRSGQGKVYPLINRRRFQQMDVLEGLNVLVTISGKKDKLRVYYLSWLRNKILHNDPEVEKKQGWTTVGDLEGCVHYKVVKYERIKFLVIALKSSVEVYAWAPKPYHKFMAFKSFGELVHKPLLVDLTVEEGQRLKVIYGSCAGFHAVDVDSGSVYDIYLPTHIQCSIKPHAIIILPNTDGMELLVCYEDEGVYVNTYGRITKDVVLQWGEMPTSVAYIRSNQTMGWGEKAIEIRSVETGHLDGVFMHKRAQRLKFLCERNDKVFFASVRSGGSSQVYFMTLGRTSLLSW
UniProt P35240: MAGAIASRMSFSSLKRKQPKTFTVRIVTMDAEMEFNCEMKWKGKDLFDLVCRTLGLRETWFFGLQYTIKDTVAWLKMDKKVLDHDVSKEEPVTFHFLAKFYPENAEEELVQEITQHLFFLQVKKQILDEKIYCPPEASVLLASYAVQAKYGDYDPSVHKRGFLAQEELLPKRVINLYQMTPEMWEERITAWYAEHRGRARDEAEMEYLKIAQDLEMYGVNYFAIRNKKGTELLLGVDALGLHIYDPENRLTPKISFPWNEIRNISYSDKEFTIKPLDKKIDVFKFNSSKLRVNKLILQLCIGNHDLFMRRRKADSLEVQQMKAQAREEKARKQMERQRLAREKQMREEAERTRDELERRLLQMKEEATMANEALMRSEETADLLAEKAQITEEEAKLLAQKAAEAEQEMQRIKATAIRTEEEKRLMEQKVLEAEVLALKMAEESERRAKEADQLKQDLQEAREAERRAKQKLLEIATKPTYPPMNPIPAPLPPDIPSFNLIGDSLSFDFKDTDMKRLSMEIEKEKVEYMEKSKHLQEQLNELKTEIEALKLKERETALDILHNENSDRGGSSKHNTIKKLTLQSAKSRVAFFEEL
UniProt Q14160: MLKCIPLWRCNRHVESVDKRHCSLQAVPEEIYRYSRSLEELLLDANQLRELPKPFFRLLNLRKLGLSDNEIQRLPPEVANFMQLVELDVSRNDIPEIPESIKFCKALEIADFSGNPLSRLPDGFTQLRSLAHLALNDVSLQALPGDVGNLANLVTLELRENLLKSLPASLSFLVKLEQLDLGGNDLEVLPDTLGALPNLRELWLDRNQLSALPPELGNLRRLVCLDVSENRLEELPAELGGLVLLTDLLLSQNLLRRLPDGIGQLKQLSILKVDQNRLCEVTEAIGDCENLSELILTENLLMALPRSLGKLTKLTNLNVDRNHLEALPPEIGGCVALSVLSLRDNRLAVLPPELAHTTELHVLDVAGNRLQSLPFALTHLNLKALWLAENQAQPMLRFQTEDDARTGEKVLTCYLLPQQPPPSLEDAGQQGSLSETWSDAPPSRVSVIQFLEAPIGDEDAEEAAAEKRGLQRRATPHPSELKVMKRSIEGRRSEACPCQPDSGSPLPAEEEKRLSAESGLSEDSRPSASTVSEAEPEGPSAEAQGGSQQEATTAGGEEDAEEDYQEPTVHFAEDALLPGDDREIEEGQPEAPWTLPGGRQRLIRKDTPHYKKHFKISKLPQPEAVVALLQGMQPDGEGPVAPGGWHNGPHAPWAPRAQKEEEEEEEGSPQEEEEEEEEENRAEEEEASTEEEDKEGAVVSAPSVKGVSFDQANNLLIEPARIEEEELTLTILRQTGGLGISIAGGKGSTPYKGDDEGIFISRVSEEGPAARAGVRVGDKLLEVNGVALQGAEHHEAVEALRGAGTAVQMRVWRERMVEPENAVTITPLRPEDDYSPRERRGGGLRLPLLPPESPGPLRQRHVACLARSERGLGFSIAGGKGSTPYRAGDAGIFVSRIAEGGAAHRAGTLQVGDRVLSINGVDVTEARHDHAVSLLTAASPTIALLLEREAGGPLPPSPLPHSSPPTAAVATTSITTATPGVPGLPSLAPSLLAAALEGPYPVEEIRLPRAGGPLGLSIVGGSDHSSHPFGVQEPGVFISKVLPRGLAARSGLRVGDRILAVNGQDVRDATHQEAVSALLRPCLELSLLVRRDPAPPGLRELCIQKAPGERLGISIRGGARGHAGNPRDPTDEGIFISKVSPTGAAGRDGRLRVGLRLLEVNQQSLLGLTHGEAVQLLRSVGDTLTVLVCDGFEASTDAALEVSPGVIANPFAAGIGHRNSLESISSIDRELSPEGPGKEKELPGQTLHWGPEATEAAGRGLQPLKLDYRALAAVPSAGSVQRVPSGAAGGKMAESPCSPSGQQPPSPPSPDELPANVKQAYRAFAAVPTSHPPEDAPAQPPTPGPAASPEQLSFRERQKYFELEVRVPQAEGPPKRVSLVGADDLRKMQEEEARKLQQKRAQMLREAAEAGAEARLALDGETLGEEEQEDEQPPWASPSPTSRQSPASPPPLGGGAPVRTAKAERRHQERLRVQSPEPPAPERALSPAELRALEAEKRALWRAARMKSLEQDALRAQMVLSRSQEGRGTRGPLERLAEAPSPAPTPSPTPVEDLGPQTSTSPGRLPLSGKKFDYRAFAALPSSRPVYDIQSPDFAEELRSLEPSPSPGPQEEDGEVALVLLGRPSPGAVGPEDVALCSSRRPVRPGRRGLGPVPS
UniProt Q9UKE5: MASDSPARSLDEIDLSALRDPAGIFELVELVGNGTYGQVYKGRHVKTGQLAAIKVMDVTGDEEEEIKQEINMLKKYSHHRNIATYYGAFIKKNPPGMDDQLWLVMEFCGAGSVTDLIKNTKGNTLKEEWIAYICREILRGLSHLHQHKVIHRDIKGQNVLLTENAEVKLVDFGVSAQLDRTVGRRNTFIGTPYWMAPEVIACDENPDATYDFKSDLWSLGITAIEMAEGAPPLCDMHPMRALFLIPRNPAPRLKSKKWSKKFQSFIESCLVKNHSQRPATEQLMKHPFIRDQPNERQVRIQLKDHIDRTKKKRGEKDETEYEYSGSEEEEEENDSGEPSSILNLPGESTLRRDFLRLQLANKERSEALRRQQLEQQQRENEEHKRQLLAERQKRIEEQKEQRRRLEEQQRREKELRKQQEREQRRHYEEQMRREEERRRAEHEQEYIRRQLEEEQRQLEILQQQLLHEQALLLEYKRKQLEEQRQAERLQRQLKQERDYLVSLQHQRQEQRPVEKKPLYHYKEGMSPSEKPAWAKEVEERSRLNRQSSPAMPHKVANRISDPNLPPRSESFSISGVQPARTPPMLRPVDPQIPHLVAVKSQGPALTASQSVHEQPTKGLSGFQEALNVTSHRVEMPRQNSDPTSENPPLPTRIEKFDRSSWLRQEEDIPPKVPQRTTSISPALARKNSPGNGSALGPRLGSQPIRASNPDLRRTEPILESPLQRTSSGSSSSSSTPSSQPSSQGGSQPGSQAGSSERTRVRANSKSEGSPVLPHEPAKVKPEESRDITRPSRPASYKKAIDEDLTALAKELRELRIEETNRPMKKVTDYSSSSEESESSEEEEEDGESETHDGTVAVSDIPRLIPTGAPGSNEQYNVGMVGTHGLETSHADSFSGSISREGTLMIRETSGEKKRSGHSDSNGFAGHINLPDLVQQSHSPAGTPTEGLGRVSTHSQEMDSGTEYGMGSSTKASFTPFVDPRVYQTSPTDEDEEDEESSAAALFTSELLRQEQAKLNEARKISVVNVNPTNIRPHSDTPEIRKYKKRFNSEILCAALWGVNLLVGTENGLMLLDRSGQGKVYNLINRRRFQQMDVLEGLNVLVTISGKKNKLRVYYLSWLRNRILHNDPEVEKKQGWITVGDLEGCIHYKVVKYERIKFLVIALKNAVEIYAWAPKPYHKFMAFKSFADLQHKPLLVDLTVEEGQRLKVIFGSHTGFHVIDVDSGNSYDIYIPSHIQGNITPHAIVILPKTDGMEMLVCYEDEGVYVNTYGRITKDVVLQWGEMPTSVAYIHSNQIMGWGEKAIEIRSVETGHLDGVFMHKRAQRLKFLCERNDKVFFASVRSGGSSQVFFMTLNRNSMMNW

Residue numbers refer to the chain shown, from its start. Results are given in words; binding and its absence hold for the method and conditions named. Binding seen in cells or lysates may run through a third protein. Some results given as binding are weak or reduced against the parent protein; the word gives no strength. For some assays here: Sequences can lack the tags named with a protein.

The target in test [1] is GFP-CNK2A WT (human) (UniProt Q8WXI2). The experiment in a line: co-IP; HEK293T cells transfected with ARF6-V5 and GFP-CNK2A (WT or W591A), with or without FLAG-CYTH1; lysed 24 h after transfection.
In test [2] the target is endogenous CNK2 (human (endogenous in U2OS)) (UniProt Q8WXI2). The experiment in a line: co-IP; endogenous CNK2 precipitated from U2OS lysate with anti-CNK2 and protein A/G agarose beads, 4 °C; immunoblot of endogenous partners. On the technique in general: Immunoblotting shows a protein as a band on a membrane.
Test [3] concerns the target GFP-CNK2A WT (human) (UniProt Q8WXI2). The experiment in a line: co-IP; U2OS cells expressing GFP-CNK2A (WT or mutant); immunoblot of MAP4K4, CYTH1, CYTH2, CYTH3 or SCRIB in the precipitate.
The target of a further test is T1, GFP-CNK2A_L955P (human) (UniProt Q8WXI2).
T1 sequence: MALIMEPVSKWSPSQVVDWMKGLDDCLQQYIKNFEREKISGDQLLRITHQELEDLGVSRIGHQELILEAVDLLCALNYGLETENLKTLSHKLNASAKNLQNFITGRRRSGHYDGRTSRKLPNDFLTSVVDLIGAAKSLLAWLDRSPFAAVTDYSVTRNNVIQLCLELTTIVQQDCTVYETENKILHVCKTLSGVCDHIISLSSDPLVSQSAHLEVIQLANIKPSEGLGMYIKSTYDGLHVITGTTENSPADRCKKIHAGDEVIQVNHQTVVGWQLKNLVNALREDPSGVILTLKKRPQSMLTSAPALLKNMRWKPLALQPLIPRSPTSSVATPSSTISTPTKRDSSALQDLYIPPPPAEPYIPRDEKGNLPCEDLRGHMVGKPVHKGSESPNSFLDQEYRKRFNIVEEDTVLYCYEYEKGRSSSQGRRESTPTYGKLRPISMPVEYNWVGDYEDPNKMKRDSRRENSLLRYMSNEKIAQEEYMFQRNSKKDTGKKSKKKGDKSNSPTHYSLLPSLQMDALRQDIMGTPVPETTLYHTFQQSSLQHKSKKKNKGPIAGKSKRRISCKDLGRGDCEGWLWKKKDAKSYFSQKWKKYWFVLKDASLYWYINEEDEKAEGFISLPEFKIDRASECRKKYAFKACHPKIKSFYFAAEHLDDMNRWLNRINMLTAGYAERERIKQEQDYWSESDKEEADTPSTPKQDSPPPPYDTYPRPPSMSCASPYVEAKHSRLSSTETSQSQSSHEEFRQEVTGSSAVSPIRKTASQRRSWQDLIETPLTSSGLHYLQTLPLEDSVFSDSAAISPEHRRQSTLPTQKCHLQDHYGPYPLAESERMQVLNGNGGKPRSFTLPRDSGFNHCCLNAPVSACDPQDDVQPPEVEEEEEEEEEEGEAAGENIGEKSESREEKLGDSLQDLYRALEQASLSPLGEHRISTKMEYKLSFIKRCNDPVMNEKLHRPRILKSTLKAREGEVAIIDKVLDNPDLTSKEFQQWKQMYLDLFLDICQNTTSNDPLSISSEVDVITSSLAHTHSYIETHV
Described as above.

In test [4] the target is GFP-CNK2A WT (human) (UniProt Q8WXI2). The experiment in a line: co-IP; U2OS cells expressing FLAG-SAMD12 and GFP-CNK2A (WT or mutant); anti-FLAG M2 with protein A/G beads or GFP-Trap agarose beads, 1 h at 4 °C.
The target of test [5] is T2, GFP-CNK2A_E64R/E68R (human) (UniProt Q8WXI2).
T2 sequence: T1 sequence with E64R, E68R, P955L
The description is as above.

The next test addresses FLAG-BirA*-CNK2A (human) (UniProt Q8WXI2). The test is described as follows: co-IP; co-IP with CNK2A in Flp-In T-REx U2OS cells (Supplementary Fig. 5a).

With ARF6-V5 (from UniProt P62330 1-175), in the test with GFP-CNK2A WT (human) [1], the binding entry is “binds”.

As to CYTH1 (from UniProt Q15438 1-398), the figures for the binding result (in test [2]; in the test with GFP-CNK2A WT (human) [3]; in the test with GFP-CNK2A_L955P (human)) were “binds”, “binds” and “no binding”, respectively.

On to CYTH2 (from UniProt Q99418 1-400), for which the binding result (in test [2]; with GFP-CNK2A WT (human) [3]) was “binds” each time.

Turning to CYTH3 (from UniProt O43739 1-400), the binding entry in test [2] is listed as “binds”; with GFP-CNK2A WT (human) [3], “binds”; in the test with GFP-CNK2A_L955P (human), “no binding”.

With FLAG-SAMD12 (from UniProt Q8N8I0 1-201), the binding entry with GFP-CNK2A WT (human) [4] is recorded as “binds”; in test [5] it was “no binding”.

As to MAP4K4 (from UniProt O95819 1-1239), the binding entry (in test [2]; with GFP-CNK2A WT (human) [3]) was “binds” in each case.

In the case of NF2 (from UniProt P35240 1-595), the binding result in test [2] is “binds”.

For the substance SCRIB (from UniProt Q14160 1-1655), the binding result (in test [2]; in the test with GFP-CNK2A WT (human) [3]) was “binds” throughout.

As for TNIK (from UniProt Q9UKE5 1-1360), the binding entry with FLAG-BirA*-CNK2A (human) is reported as “binds”.
